For 31 molecules, binding signal results are on record in paper PMC9911399, “Two distinct binding modes provide the RNA-binding protein RbFox with extraordinary sequence specificity”.

Substitutions are numbered along the chain they refer to; changes in the protein carry UniProt numbers. This is one part of the list.

Sequences and labels used below:
B1: AGGUCUG (DNA:RNA)
RNA: GGGAGACCGGAAUUCAGAUUGUCCAGGUCUGUUAAAUCCCGUCGUAGCCACCA
DNA 1: CAATCTGAATTCCGGTCTCCC
DNA 2: TGGTGGCTACGACGGGATT
B2: UCCGUAA (DNA:RNA)
RNA: GGGAGACCGGAAUUCAGAUUGUCCUCCGUAAUUAAAUCCCGUCGUAGCCACCA
DNA 1: CAATCTGAATTCCGGTCTCCC
DNA 2: TGGTGGCTACGACGGGATT
B3: UGGACCG (DNA:RNA)
RNA: B1 RNA with A25U, U28A, U30C
DNA 1: CAATCTGAATTCCGGTCTCCC
DNA 2: TGGTGGCTACGACGGGATT
B4: CUUUAGA (DNA:RNA)
RNA: B1 RNA with A25C, G26U, G27U, C29A, U30G, G31A
DNA 1: CAATCTGAATTCCGGTCTCCC
DNA 2: TGGTGGCTACGACGGGATT
B5: CGACCAA (DNA:RNA)
RNA: B1 RNA with A25C, G27A, U28C, U30A, G31A
DNA 1: CAATCTGAATTCCGGTCTCCC
DNA 2: TGGTGGCTACGACGGGATT
B6: CUAACUG (DNA:RNA)
RNA: B1 RNA with A25C, G26U, G27A, U28A
DNA 1: CAATCTGAATTCCGGTCTCCC
DNA 2: TGGTGGCTACGACGGGATT
B7: GGGAAUA (DNA:RNA)
RNA: B1 RNA with A25G, U28A, C29A, G31A
DNA 1: CAATCTGAATTCCGGTCTCCC
DNA 2: TGGTGGCTACGACGGGATT
B8: CUUUAUC (DNA:RNA)
RNA: B1 RNA with A25C, G26U, G27U, C29A, G31C
DNA 1: CAATCTGAATTCCGGTCTCCC
DNA 2: TGGTGGCTACGACGGGATT
B9: CUGACGC (DNA:RNA)
RNA: B1 RNA with A25C, G26U, U28A, U30G, G31C
DNA 1: CAATCTGAATTCCGGTCTCCC
DNA 2: TGGTGGCTACGACGGGATT
B10: AUUAGCU (DNA:RNA)
RNA: B1 RNA with G26U, G27U, U28A, C29G, U30C, G31U
DNA 1: CAATCTGAATTCCGGTCTCCC
DNA 2: TGGTGGCTACGACGGGATT
B11: CUUCACC (DNA:RNA)
RNA: GGGAGACCGGAAUUCAGAUUGUCCCUUCACCUUAAAUCCCGUCGUAGCCACCA
DNA 1: CAATCTGAATTCCGGTCTCCC
DNA 2: TGGTGGCTACGACGGGATT
B12: GUGCCUC (DNA:RNA)
RNA: B1 RNA with A25G, G26U, U28C, G31C
DNA 1: CAATCTGAATTCCGGTCTCCC
DNA 2: TGGTGGCTACGACGGGATT
B13: GUUAUUA (DNA:RNA)
RNA: B11 RNA with C25G, C28A, A29U, C30U, C31A
DNA 1: CAATCTGAATTCCGGTCTCCC
DNA 2: TGGTGGCTACGACGGGATT
B14: UAACGAC (DNA:RNA)
RNA: B11 RNA with C25U, U26A, U27A, A29G, C30A
DNA 1: CAATCTGAATTCCGGTCTCCC
DNA 2: TGGTGGCTACGACGGGATT
B15: CUAAUCA (DNA:RNA)
RNA: B11 RNA with U27A, C28A, A29U, C31A
DNA 1: CAATCTGAATTCCGGTCTCCC
DNA 2: TGGTGGCTACGACGGGATT
B16: UUCUGAU (DNA:RNA)
RNA: B2 RNA with C26U, G28U, U29G, A31U
DNA 1: CAATCTGAATTCCGGTCTCCC
DNA 2: TGGTGGCTACGACGGGATT
B17: AACACUC (DNA:RNA)
RNA: B1 RNA with G26A, G27C, U28A, G31C
DNA 1: CAATCTGAATTCCGGTCTCCC
DNA 2: TGGTGGCTACGACGGGATT
B18: UUCAAUA (DNA:RNA)
RNA: B2 RNA with C26U, G28A, U29A, A30U
DNA 1: CAATCTGAATTCCGGTCTCCC
DNA 2: TGGTGGCTACGACGGGATT
B19: UGCGAGC (DNA:RNA)
RNA: B2 RNA with C26G, U29A, A30G, A31C
DNA 1: CAATCTGAATTCCGGTCTCCC
DNA 2: TGGTGGCTACGACGGGATT
B20: ACGACGU (DNA:RNA)
RNA: B1 RNA with G26C, U28A, U30G, G31U
DNA 1: CAATCTGAATTCCGGTCTCCC
DNA 2: TGGTGGCTACGACGGGATT
B21: ACCUACC (DNA:RNA)
RNA: B11 RNA with C25A, U26C, U27C, C28U
DNA 1: CAATCTGAATTCCGGTCTCCC
DNA 2: TGGTGGCTACGACGGGATT
B22: CCCCUGC (DNA:RNA)
RNA: B11 RNA with U26C, U27C, A29U, C30G
DNA 1: CAATCTGAATTCCGGTCTCCC
DNA 2: TGGTGGCTACGACGGGATT
B23: AUCCUGC (DNA:RNA)
RNA: B11 RNA with C25A, U27C, A29U, C30G
DNA 1: CAATCTGAATTCCGGTCTCCC
DNA 2: TGGTGGCTACGACGGGATT
B24: GCGAUAC (DNA:RNA)
RNA: B2 RNA with U25G, C27G, G28A, A31C
DNA 1: CAATCTGAATTCCGGTCTCCC
DNA 2: TGGTGGCTACGACGGGATT
B25: GCAAUAU (DNA:RNA)
RNA: B2 RNA with U25G, C27A, G28A, A31U
DNA 1: CAATCTGAATTCCGGTCTCCC
DNA 2: TGGTGGCTACGACGGGATT
B26: GCUAUAU (DNA:RNA)
RNA: B2 RNA with U25G, C27U, G28A, A31U
DNA 1: CAATCTGAATTCCGGTCTCCC
DNA 2: TGGTGGCTACGACGGGATT
B27: AUGCGAA (DNA:RNA)
RNA: B1 RNA with G26U, U28C, C29G, U30A, G31A
DNA 1: CAATCTGAATTCCGGTCTCCC
DNA 2: TGGTGGCTACGACGGGATT
B28: AACGGCA (DNA:RNA)
RNA: B2 RNA with U25A, C26A, U29G, A30C
DNA 1: CAATCTGAATTCCGGTCTCCC
DNA 2: TGGTGGCTACGACGGGATT
B29: UGUUCUC (DNA:RNA)
RNA: B1 RNA with A25U, G27U, G31C
DNA 1: CAATCTGAATTCCGGTCTCCC
DNA 2: TGGTGGCTACGACGGGATT
B30: AGGCUGA (DNA:RNA)
RNA: B1 RNA with U28C, C29U, U30G, G31A
DNA 1: CAATCTGAATTCCGGTCTCCC
DNA 2: TGGTGGCTACGACGGGATT
B31: CACCGGG (DNA:RNA)
RNA: B11 RNA with U26A, U27C, A29G, C30G, C31G
DNA 1: CAATCTGAATTCCGGTCTCCC
DNA 2: TGGTGGCTACGACGGGATT

The target of the test is T1, RBFOX1 RRM RbFoxmut (Fox-RRM*) (Homo sapiens, UniProt Q9NWB1 109-208, R118D;E147R;N151S;E152T).
T1 sequence: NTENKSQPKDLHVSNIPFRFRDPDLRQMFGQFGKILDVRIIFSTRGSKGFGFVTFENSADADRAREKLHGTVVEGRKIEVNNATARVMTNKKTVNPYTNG
Description: EMSA; HiTS-Eq, 1 nM pool, 10 min; buffer printed only for the single-RNA assays: 10 mM Tris pH 7.5, 150 mM NaCl, 3.4 mM EDTA, 0.001% NP-40, 30 C. Conditions: tags: His6 N-terminal (pET28a); label: 5' 32P. A digest of the protocol: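 Purified RbFox RRM, wild type or mutant, was incubated for 10 min in 50 µL with 1 nM of a 5′-radiolabelled RNA pool carrying 7 randomized nucleotides, whose flanks were annealed to DNA oligonucleotides, over a series of increasing protein concentrations. Unbound RNA was resolved on 8% native PAGE, cut out, reverse-transcribed, barcoded by PCR and sequenced on an Illumina HiSeq 2500. Relative association constants were derived from changes in read counts for each RNA species versus the control reaction and normalised to the cognate motif.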
A general note: In EMSA bound probe runs differently from free probe, usually more slowly.
Turning to B1, the binding signal was 0.187 KA relative to UGCAUGU.

With B2, the binding signal was 0.0724 KA relative to UGCAUGU.

Turning to B3, the binding signal is 0.238 KA relative to UGCAUGU.

For the molecule B4, the binding signal was 0.133 KA relative to UGCAUGU.

As to B5, the binding signal is 0.0878 KA relative to UGCAUGU.

As for B6, the binding signal is 0.0781 KA relative to UGCAUGU.

Regarding B7, the binding signal was 0.157 KA relative to UGCAUGU.

In the case of B8, the binding signal was 0.0598 KA relative to UGCAUGU.

In the case of B9, the binding signal was 0.071 KA relative to UGCAUGU.

Turning to B10, the binding signal is 0.141 KA relative to UGCAUGU.

With B11, the binding signal is 0.0684 KA relative to UGCAUGU.

In the case of B12, the binding signal is 0.105 KA relative to UGCAUGU.

For the molecule B13, the binding signal was 0.132 KA relative to UGCAUGU.

As for B14, the binding signal was 0.0505 KA relative to UGCAUGU.

Consider B15, for which the binding signal was 0.0869 KA relative to UGCAUGU.

Regarding B16, the binding signal is 0.0736 KA relative to UGCAUGU.

Take B17: the binding signal is 0.0249 KA relative to UGCAUGU.

For the molecule B18, the binding signal was 0.094 KA relative to UGCAUGU.

Regarding B19, the binding signal was 0.112 KA relative to UGCAUGU.

Consider B20, for which the binding signal was 0.105 KA relative to UGCAUGU.

As for B21, the binding signal is 0.07 KA relative to UGCAUGU.

Take B22: the binding signal is 0.0955 KA relative to UGCAUGU.

With B23, the binding signal is 0.118 KA relative to UGCAUGU.

As for B24, the binding signal was 0.057 KA relative to UGCAUGU.

Take B25: the binding signal is 0.0925 KA relative to UGCAUGU.

Take B26: the binding signal is 0.115 KA relative to UGCAUGU.

For the molecule B27, the binding signal is 0.131 KA relative to UGCAUGU.

In the case of B28, the binding signal is 0.115 KA relative to UGCAUGU.

Turning to B29, the binding signal is 0.0604 KA relative to UGCAUGU.

B30: the binding signal is 0.127 KA relative to UGCAUGU.

Regarding B31, the binding signal was 0.0671 KA relative to UGCAUGU.
